Test results as given in PubChem BioAssay AID1159614 (National Center for Advancing Translational Sciences (NCATS), 2016).
Out of some 45,000 compounds screened, about 65 (0.1%) were called active. Calls come from the whole dose curve; as a rule, active = well fitted activation curve with a large enough effect; inconclusive = small, poorly fitted or top-dose-only effect; inactive = no such curve, though single readings can be large or run the other way. Some of the results follow.

Each molecule was assayed against Galactocerebrosidase (Homo sapiens) (UniProt P54803) (assay: A Novel Cell-Based Assay to Identify Small Molecules for B -Galactocerebrosidase). Conditions: 145M-Twi-hGALC-G270D cells (Twitcher mouse brain line with human GALC G270D), HMU-beta-Gal fluorescence, 48 h; series mostly up to 57.5 µM; activation: at the top concentration.
Outline: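 Live 145M-Twi cells (Twitcher mouse brain-derived, GALC-null) stably expressing human GALC-G270D, with a wild-type GALC line, were compound-treated. Residual GALC activity was then read as fluorescence from 0.1 mM final HMU-β-gal at pH 5.2; higher signal means activation.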
Note: 0% is about no effect; nearly all actives have a fitted effect of over 65% in size.

UniProt P54803, sequence (P54803 whole entry, looked up): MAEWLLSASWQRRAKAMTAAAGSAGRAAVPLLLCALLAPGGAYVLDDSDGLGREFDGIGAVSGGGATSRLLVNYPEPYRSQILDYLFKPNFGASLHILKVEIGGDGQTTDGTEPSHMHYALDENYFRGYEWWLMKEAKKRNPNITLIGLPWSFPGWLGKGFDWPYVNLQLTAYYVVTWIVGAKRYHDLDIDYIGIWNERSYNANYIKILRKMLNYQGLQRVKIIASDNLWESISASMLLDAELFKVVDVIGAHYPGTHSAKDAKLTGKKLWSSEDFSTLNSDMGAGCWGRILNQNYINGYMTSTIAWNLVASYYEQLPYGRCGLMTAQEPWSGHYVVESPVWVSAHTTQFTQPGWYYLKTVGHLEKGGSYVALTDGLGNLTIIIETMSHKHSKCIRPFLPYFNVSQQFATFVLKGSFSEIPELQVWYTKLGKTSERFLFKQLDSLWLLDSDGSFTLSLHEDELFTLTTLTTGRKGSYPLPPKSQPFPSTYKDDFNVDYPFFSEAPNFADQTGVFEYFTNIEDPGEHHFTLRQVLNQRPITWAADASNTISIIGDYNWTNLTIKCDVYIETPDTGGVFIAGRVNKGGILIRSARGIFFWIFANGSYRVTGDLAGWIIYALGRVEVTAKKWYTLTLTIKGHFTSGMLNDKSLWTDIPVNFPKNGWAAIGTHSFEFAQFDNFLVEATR

activation, inactive:
COc1ccc(CNC(=O)c2ccc3c(c2)CCN3S(=O)(=O)c2ccccc2)cc1 -9.11%
COCCCOc1ccnc(CS(=O)c2nc3ccccc3[nH]2)c1C (stereo not given) 1.4%
CC1CCCN(S(=O)(=O)c2cc(C(=O)NCCc3ccccc3)n(C)c2)C1 (stereo not given) 0.386%
CCn1cc(C(=O)NCc2ccccc2Cl)c(=O)c2cc(S(=O)(=O)N3CCCCCC3)ccc21 -8.78%
CCOc1ccc(Nc2oc(-c3ccc(COc4ccc(C)cc4)o3)nc2C#N)cc1 -8.34%
COc1ccc(CNc2nc(-c3ccco3)nn2C(=O)c2ccccc2C)cc1 -24%
Cc1ccc(-c2nc(CNC(=O)NC3CCCCC3)c(C)o2)cc1 -9.51%
Cc1ccc(Cl)cc1NC(=O)c1ccc2nc(CCc3ccccc3)oc2c1 -8.89%
CC(=O)c1cccc(NC(=O)Nc2cc3c(cc2N2CCCC2)n(C)c(=O)n3C)c1 -5.97%
CCc1ccc(C(=O)Nc2cccc(-c3nc4cc(C(C)C)ccc4o3)c2)cc1 -8.41%
Cc1ccc(NC(=O)Cn2c(=O)cc(-c3ccccc3)c3c(C)nn(C)c32)c(Cl)c1 -13.9%
O=C(CSc1nnc(-c2ccc(Cl)cc2)c(-c2ccc(Cl)cc2)n1)NC1CCCC1 -5.22%
O=C(CCCn1c(=O)[nH]c2ccsc2c1=O)N1CCN(c2ccc(Cl)cc2)CC1 -2.25%
Cc1ccc(C)c(NC(=O)Cn2c(=O)n(CC(=O)NCCc3ccccc3)c(=O)c3ccccc32)c1 -7.25%
CCOC(=O)c1sc2cccc(F)c2c1S(=O)(=O)Nc1ccccc1F -22.2%
COc1ccc(Cn2c(SCc3ccc(C(=O)NCc4cccs4)cc3)nc3ccncc32)cc1 -5.5%
CCN(C(=O)c1cc(S(=O)(=O)N2CCCC2)cn1C)c1ccc(OC)cc1 3.27%
COc1ccc(NC(=O)c2nnn(CC(=O)Nc3cc(C)cc(C)c3)c2N)c(OC)c1 -0.0181%
CCCCC(=O)Nc1ccc(C(=O)OCc2cc(=O)n3ccsc3n2)cc1 -9.27%
O=S(=O)(c1ccccc1)c1nc(-c2ccco2)oc1SCc1ccc(F)cc1 -19.9%
CC(C)NNC(=O)c1ccncc1 -12.6%
CCOC(=O)CC(NC(=O)CCc1c(C)nc2cc(-c3ccccc3)nn2c1C)c1ccc(C)cc1 (stereo not given) -14.3%
O=C(Nc1cc(F)ccc1F)c1cnn2c(C(F)F)cc(-c3ccccc3)nc12 -5.56%
COc1cc(OC)c(NC(=O)C(C)n2nc(-c3ccc(C)cc3)c3c(c2=O)CCCC3)cc1Cl (stereo not given) -17%
N#Cc1ccccc1NC(=O)C(=O)NCC(c1cccnc1)N1CCc2ccccc21 (stereo not given) -29.7%
COC(=O)c1ccc(NC(=O)CSc2nc3cc4ccccc4cc3[nH]2)cc1 -18.1%
Cc1ccc(S(=O)(=O)c2nnn3c2nc(N2CCN(c4cccc(C)c4C)CC2)c2ccccc23)cc1C -8.48%
COc1ccccc1-c1cc2nc(C)c(CCC(=O)NC3CCCCC3)c(C)n2n1 -15.7%
O=C(c1ccccc1)c1ccc2nc(N3CCN(c4ccc(F)cc4)CC3)c3nncn3c2c1 -6.65%
Cc1ccc(NC(=O)C2CCCN(c3ncnc4onc(C)c34)C2)cc1Cl (stereo not given) -26.5%
Clc1cccc(-n2ncc3c(N4CCCCCC4)ncnc32)c1 -12.1%
Cn1c(=O)n(C)c2cc(N3CCCC3)c(NC(=O)Nc3ccccc3)cc21 -10.1%
Cc1cc(C(=O)N2CCN(c3cc(Cl)ccc3C)CC2)c2c(C)nn(-c3ccccc3)c2n1 -12.4%
CCNc1sc(S(C)(=O)=O)nc1S(=O)(=O)c1ccc(C)cc1 -18.1%
Cc1ccc(Cn2c(=O)n(Cc3ccccc3Cl)c(=O)c3cccnc32)cc1 -1.39%
CCCCc1nn2c(=O)cc(COC(=O)c3cccs3)nc2s1 -14.5%
COc1cc(OC)c(NC(=O)c2c(C)oc3ncnc(N4CCCCC4)c23)cc1Cl -13%
COC(=O)c1ccccc1NC(=O)Cn1c(=O)n(CCCCC(=O)NCc2ccc3c(c2)OCO3)c(=O)c2ccccc21 -4.46%
Cc1ccc(N2CCN(c3nc4ccccc4c4nnc(C)n34)CC2)c(C)c1 0.357%
CCc1ccc(NC(=O)CCNC(=O)Cn2cnc3ccccc3c2=O)cc1 -21.5%
Cc1ccc(CNC(=O)c2cccc(Nc3nc4ccccc4n4nnnc34)c2)cc1 -11%
Cc1ccc(NC(=O)Cn2ncn3c(cc4ccccc43)c2=O)cc1C -1.34%
Cc1cccc(C)c1NC(=O)Cn1cc(S(=O)(=O)Cc2ccc(F)cc2)c2ccccc21 -4.59%
Cn1c(=O)c2c(nc(N3CCOCC3)n2Cc2ccccc2)n(C)c1=O -12.9%
CCOC(=O)c1c(C)[nH]c(C)c1S(=O)(=O)N(C)CC(=O)N1CCN(c2cccc(Cl)c2)CC1 -5.71%
Cc1ccc(CNC(=O)CN2C(=O)COc3ccccc32)cc1 -12.7%
Cc1ccc(C(=O)c2cn(Cc3c(F)cccc3Cl)c3nc(C)ccc3c2=O)cc1 -8.19%
COc1ccc(C(=O)Nc2nnc(SCc3cc(=O)n4cc(Cl)ccc4n3)s2)cc1 -6.1%
Cc1cc(C)cc(NC(=O)Cn2c(=O)n(CC(=O)NCCc3ccccc3)c(=O)c3ccccc32)c1 -21.2%
CCc1nc2ccc(C(=O)NCCc3ccc(OC)cc3OC)cc2nc1CC -17.8%
O=C(NCCc1ccc(Cl)cc1)c1ccc(CS(=O)(=O)Cc2ccc(Cl)cc2)o1 -7.21%
Cc1noc(-c2ccc(-c3noc(-c4ccccc4)n3)cc2)n1 -12.9%
CCc1ccc(C2CC(=O)c3c([nH]c(C(=O)OCc4ccc(C)cc4)c3C)C2)cc1 (stereo not given) -17.3%
CCC(C(=O)NCc1ccc2c(c1)CCN2C(=O)c1ccc(F)cc1)c1ccccc1 (stereo not given) -20.6%
CCOc1ccc(CCNC(=O)c2cc(Nc3ccc(C)cc3C)nc3ccccc23)cc1OCC -9.7%
CC(=O)c1cc(-c2ccccc2)n(CCC(=O)Nc2nc3c(C)cccc3s2)c1C -1.73%
CC1CCN(S(=O)(=O)c2ccc3[nH]cc(C(=O)NCc4ccc(F)cc4)c(=O)c3c2)CC1 -12.7%
CCOC(=O)c1cc(-c2ccc(C)cc2)n(CCC(=O)Nc2cc(Cl)ccc2C)c1C 8.42%
Cc1ccc2c(c1)sc1nc(-c3cc4cc(Cl)ccc4oc3=O)cn12 -18.7%
Cc1cccc(CSc2nc(=O)c3c(n2C)NC(=O)CC3c2cccc(O)c2)c1 (stereo not given) -10.4%
COc1cc2[nH]c(=O)n(Cc3ccc(C(=O)NCc4ccc(C)cc4)cc3)c(=O)c2cc1OC -18.9%
COc1ccccc1NC(=O)Cn1c(=O)n(-c2cccc(Cl)c2)c(=O)c2sc3ccccc3c21 -8.01%
O=C1Cc2cc(S(=O)(=O)N3CCCCC3)cc3c2N1CCC3 -5.44%
Cc1ccc(N2CC(NC(=O)Cc3ccc(F)cc3)CC2=O)cc1 (stereo not given) -5.07%
CC1=C(C(=O)Nc2cccc(C(F)(F)F)c2)C2(CCCCCC2)OC1=O -1.52%
O=C(Cn1c(=O)n(Cc2ccc(C(=O)NCc3ccc4c(c3)OCO4)cc2)c(=O)c2ccccc21)Nc1cccc(Cl)c1 -2.61%
Cc1ccc(C)c(Cn2cnc3ccccc3c2=O)c1 -10.6%
COc1cccc(CNC(=O)CSc2n[nH]c(-c3ccccc3Cl)n2)c1 -10.6%
CCc1ccc(CNC(=O)c2ccc3c(c2)nc2n3CCCCC2)cc1 -11.4%
COc1ccc(OC)c(CCNC(=O)CN2C(=O)COc3ccc(S(=O)(=O)N4CCCCCC4)cc32)c1 -13.4%
COc1cccc(CNC(=O)CCNS(=O)(=O)c2ccc3c(c2)CCCC(=O)N3)c1 -22.8%
Fc1ccccc1C1=NC(c2ccc(C(F)(F)F)cc2)=Nc2ccccc2N1 -18.5%
CCOc1ccccc1CN1CCc2nc(Nc3ccccc3)ncc2C1 5.85%
COc1cc(CN2CCN(S(=O)(=O)c3ccc(F)cc3)CC2)cc(OC)c1OC -0.835%
O=C(NCc1ccccn1)c1nn(-c2ccccc2F)nc1CO -18%
Fc1ccc(-n2ncc3c(N4CCN(Cc5ccccc5)CC4)ncnc32)cc1 -9.92%
COC(=O)c1cc(OC)c(OC)cc1NC(=O)c1ccc2c(c1)CCN2S(=O)(=O)c1ccccc1 -2.28%
O=C(c1ccc(F)cc1)n1nc(-c2ccc(Cl)cc2)nc1NCc1ccco1 -21.1%
COc1ccccc1NC(=O)Cn1nc(C)n2cccc2c1=O -10.9%
Cc1ccc(CNC(=O)Cn2ccn(-c3cc(C)cc(C)c3)c(=O)c2=O)cc1 -7.53%
O=C(Nc1c2c(nn1-c1ccc(Cl)cc1)CS(=O)(=O)C2)c1cccc(Cl)c1 -20.6%
CC1=C(C(=O)Nc2ccccc2)C(c2cccs2)n2nc(SCc3ccccc3)nc2N1 (stereo not given) -12.5%
CC(=O)N1c2ccc(S(=O)(=O)NCCC(=O)Nc3ccc(C)cc3Br)cc2CC1C (stereo not given) -24.8%
CCc1cccc(NC(=O)CN2c3ccccc3S(=O)(=O)c3ccccc32)c1 -27.5%
O=C(CSc1ccc2nnc(CCNS(=O)(=O)c3ccccc3)n2n1)Nc1ccccc1C(F)(F)F -0.0524%
COC(=O)c1ccc(Cn2c(SCC(=O)Nc3ccc(F)cc3)nc3ccccc32)cc1 1%
Cc1ccc(N2CC(C(=O)NCc3nnnn3-c3ccc(C)c(C)c3)CC2=O)cc1 (stereo not given) 1.09%
CCOc1ccc(-c2cc(NC(=O)Nc3ccccc3C(F)(F)F)c(C(=O)OC)s2)cc1 -16.1%
CCCCOc1ccc(C(=O)Nc2ccc3c(c2)CCCN3S(=O)(=O)c2ccc(C)cc2)cc1 -17.4%
CCCCN(CC)Cc1ccc(CNS(=O)(=O)c2cc3c(cc2Cl)NC(=O)CO3)o1 -6.84%
CCOc1ccc(NC(=O)Cn2c(=O)n(Cc3ccc(C(=O)NCc4ccc5c(c4)OCO5)cc3)c(=O)c3ccccc32)cc1 -13.2%
CCOC(=O)N1CCc2c(sc3c2c(=O)n(-c2ccc(CC)cc2)c(=O)n3Cc2cc(C)ccc2C)C1 -5.03%
CCOc1ccccc1NC(=O)C1CCCN(S(=O)(=O)c2cn(C)cn2)C1 (stereo not given) -7.58%
CCOC(=O)c1c(C)oc2nc(C)nc(Nc3cc(C)ccc3OC)c12 -15.3%
CCOc1ccc(NC(=O)Cn2c(=O)cc(C)c3c(C)nn(-c4ccc(CC)cc4)c32)cc1 -8.33%
